The results in this text go back to paper PMC6281666.

Protein sequences, listed by entry. Tags and fused reporters are not part of them.
UniProt Q13158: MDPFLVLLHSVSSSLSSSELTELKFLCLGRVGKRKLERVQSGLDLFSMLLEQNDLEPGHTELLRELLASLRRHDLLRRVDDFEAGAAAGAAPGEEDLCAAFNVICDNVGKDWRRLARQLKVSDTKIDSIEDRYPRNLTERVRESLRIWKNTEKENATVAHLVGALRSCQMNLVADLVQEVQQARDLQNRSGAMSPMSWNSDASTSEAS

Results are given in words; binding and its absence hold for the method and conditions named. Binding seen in cells or lysates may run through a third protein. Some binding calls cover weakened binding; strength is not graded here.

The target in assay [1] is T1, SEMA6A SEMA deletion mutant (6AΔsema, aa 513–1031) (human (cDNA from Hs68 foreskin fibroblasts)) (UniProt Q9H2E6).
T1 sequence: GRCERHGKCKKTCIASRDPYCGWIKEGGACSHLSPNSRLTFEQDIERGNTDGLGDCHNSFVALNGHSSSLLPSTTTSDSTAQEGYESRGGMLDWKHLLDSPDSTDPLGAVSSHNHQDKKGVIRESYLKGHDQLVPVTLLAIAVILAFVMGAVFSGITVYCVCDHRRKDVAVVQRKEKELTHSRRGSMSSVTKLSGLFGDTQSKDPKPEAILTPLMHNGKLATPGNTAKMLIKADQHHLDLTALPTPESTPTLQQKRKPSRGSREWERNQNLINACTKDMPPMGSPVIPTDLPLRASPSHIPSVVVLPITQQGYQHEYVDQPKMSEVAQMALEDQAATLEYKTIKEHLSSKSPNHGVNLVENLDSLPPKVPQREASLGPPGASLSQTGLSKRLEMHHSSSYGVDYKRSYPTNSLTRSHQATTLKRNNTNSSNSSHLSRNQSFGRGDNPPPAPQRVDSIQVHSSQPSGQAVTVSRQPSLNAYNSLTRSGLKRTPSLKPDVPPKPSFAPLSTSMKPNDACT
In words: co-IP; co-IP of FADD with 6AΔsema or 6Acyto in the presence of added purified SEMA domain, with quantification (n = 3); cell line not stated.

The target of assay [2] is T2, SEMA6A intracellular cytosolic domain construct (6Acyto, aa 575–1031) (human (cDNA from Hs68 foreskin fibroblasts)) (UniProt Q9H2E6).
T2 sequence: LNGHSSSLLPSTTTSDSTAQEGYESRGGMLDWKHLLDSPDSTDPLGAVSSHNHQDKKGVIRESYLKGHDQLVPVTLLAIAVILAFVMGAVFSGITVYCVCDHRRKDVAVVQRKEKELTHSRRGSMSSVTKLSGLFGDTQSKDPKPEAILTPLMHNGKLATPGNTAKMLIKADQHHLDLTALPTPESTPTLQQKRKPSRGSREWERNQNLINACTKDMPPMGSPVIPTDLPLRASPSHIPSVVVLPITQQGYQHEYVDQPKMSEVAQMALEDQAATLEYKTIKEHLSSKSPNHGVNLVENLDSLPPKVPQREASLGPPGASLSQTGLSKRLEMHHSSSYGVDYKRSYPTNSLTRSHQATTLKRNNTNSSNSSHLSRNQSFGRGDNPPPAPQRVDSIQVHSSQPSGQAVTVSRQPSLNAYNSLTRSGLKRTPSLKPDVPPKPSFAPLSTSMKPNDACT
The description is as above.

The target of assay [3] is T1, SEMA6A SEMA deletion mutant (6AΔsema, aa 513–1031) (human (cDNA from Hs68 foreskin fibroblasts)). In words: co-IP; 293T cells overexpressing His-tagged SEMA6A constructs for 48 h; Pierce IP lysis buffer; IP with rabbit anti-FADD or rabbit anti-SEMA6A at 4 °C for 16 h, magnetic beads; control rabbit IgG; blots with anti-FADD and anti-His.
For assay [4], the target named is T2, SEMA6A intracellular cytosolic domain construct (6Acyto, aa 575–1031) (human (cDNA from Hs68 foreskin fibroblasts)). The description is as above.
The target of assay [5] is T3, SEMA6A extracellular ectodomain construct (6Aect, aa 1–704) (human (cDNA from Hs68 foreskin fibroblasts)) (UniProt Q9H2E6).
T3 sequence: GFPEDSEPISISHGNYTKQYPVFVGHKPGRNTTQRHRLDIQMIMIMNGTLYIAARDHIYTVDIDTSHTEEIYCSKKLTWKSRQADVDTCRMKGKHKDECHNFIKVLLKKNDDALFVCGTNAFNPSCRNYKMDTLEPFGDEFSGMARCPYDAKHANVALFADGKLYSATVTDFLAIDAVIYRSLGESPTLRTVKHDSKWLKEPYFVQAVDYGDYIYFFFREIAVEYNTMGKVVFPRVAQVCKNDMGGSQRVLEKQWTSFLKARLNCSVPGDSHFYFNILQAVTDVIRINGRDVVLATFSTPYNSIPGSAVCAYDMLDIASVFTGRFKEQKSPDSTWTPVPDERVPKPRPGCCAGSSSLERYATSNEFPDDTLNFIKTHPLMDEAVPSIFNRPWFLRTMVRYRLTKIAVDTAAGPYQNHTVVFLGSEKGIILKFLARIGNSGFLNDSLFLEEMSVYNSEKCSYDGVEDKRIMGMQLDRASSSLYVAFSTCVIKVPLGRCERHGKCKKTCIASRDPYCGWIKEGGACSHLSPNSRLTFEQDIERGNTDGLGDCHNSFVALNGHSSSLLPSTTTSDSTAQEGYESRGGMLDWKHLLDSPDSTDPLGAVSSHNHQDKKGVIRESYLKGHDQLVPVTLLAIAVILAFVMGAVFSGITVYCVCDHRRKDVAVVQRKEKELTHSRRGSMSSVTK
The assay is described as above.

In assay [6] the target is T4, full length semaphorin 6A (6A-FL) (human (cDNA from Hs68 foreskin fibroblasts)) (UniProt Q9H2E6).
T4 sequence: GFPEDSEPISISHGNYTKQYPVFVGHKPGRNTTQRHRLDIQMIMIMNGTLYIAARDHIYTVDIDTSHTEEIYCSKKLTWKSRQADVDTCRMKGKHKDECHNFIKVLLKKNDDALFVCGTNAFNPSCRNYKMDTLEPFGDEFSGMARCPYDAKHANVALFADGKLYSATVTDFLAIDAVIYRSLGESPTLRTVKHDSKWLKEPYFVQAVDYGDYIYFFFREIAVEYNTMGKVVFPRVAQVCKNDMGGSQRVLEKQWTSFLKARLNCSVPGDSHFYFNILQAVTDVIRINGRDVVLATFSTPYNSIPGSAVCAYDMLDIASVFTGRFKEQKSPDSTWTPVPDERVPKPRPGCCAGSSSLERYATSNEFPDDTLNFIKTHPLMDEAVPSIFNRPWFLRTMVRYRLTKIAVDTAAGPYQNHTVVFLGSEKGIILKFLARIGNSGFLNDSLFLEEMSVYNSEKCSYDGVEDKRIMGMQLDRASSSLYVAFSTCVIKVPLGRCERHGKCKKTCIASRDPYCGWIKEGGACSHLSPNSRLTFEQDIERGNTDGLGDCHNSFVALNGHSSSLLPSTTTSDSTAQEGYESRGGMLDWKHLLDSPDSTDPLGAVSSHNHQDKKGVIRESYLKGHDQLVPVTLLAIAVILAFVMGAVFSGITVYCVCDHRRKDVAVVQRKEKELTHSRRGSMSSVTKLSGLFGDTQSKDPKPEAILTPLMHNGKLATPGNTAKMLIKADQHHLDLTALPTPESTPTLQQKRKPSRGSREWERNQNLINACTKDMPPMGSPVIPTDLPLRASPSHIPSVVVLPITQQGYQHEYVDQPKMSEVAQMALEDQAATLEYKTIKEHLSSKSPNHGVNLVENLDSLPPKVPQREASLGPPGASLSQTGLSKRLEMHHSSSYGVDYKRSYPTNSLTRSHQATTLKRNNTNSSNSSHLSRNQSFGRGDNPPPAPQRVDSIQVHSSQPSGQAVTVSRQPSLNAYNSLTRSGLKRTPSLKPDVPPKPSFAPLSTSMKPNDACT
Described as above.

Assay [7] addresses T1, SEMA6A SEMA deletion mutant (6AΔsema, aa 513–1031) (human (cDNA from Hs68 foreskin fibroblasts)). Description: co-IP; H1299 cells overexpressing His-tagged SEMA6A constructs; otherwise as in 293T cells (Fig. S5A–C).
Assay [8] has as its target T2, SEMA6A intracellular cytosolic domain construct (6Acyto, aa 575–1031) (human (cDNA from Hs68 foreskin fibroblasts)). The assay is described as above.
Assay [9] deals with T3, SEMA6A extracellular ectodomain construct (6Aect, aa 1–704) (human (cDNA from Hs68 foreskin fibroblasts)). Described as above.
Assay [10] deals with T4, full length semaphorin 6A (6A-FL) (human (cDNA from Hs68 foreskin fibroblasts)). The assay is described as above.
Assay [11] concerns the target Fas-associated protein with death domain (FADD) (human (endogenous in 293T and H1299)) (UniProt Q13158). Description: co-IP; 293T cells overexpressing His-tagged SEMA6A constructs for 48 h; Pierce IP lysis buffer; IP with rabbit anti-FADD or rabbit anti-SEMA6A at 4 °C for 16 h, magnetic beads; control rabbit IgG; blots with anti-FADD and anti-His.
The target is the same in assay [12]. Description: co-IP; H1299 cells overexpressing His-tagged SEMA6A constructs; otherwise as in 293T cells (Fig. S5A–C).

Take “Fas-associated protein with death domain (FADD) (from UniProt Q13158 1-208)”: the binding entry in assay [1] was “binds”; in [2] it was “binds”; in assay [3], “binds”; in [4], “binds”; in assay [5], “no binding”; in assay [6], “no binding”. In addition, the binding result in [7] is “binds”; in assay [8], “binds”; in assay [9], “no binding”; in assay [10], “no binding”.

B1: SEMA6A SEMA deletion mutant (6AΔsema, aa 513–1031) (domain or fragment, UniProt Q9H2E6 513-1030)
chain: T1 sequence
In the case of B1, the binding entry in assay [11] and in assay [12] was “binds” in each case.

B2: SEMA6A intracellular cytosolic domain construct (6Acyto, aa 575–1031) (domain or fragment, UniProt Q9H2E6 575-1030)
chain: T2 sequence
Turning to B2, the binding result in [11] and in [12] was “binds” in each case.
